About 530 (0.16%) of roughly 340,000 compounds were called active. The inconclusive results got no clear call from the source; some entries with a clear call stand among them for comparison. Rule as the data show it: active = activity change below about -80%; inconclusive = between about -30% and that limit; inactive = weaker than that.
Assay: Small Molecules that selectively kill Giardia lamblia: qHTS;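 also: parasites exposed to compound for two days anaerobically before the ATP read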
Conditions: Giardia lamblia trophozoite viability; at 7.66 µM; stronger effect = lower value
How it was run: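 Giardia lamblia trophozoites (100 cells/well) were incubated with compounds for 48 h at 37 deg C under anaerobic conditions. Viability was read as ATP content by one-step luminescence after 15-30 min at room temperature.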
In the case of `COc1ccc(NC(=O)c2ccc(-c3ccccc3Cl)o2)cc1`, the activity change is reported as inactive: -1.82%.
In the case of `COc1ccc(-c2noc(N3CCC(C(=O)Nc4ccccc4F)CC3)n2)cc1`, the activity change is reported as inconclusive: -33.4% [inhibitor].
With `Cc1ccc(NC(=S)NCc2ccc3[nH]c4c(c3c2)CCCC4)cc1` the activity change was inconclusive: -38.9% [inhibitor].
With `O=C(Nc1ccc(Br)cc1)c1ccc2ncsc2c1` the activity change was inconclusive: -31.3% [inhibitor].
In the case of `CCOc1ccc(S(=O)(=O)N2CCCC(C(=O)Nc3ccccc3)C2)cc1` (stereo unspecified), the activity change is reported as inactive: -5.18%.
In the case of `COc1ccc(NC(=O)CSc2nc(C3CC3)nc3ccccc23)c(OC)c1`, the activity change is reported as inactive: -3.7%.
In the case of `c1ccc(CNc2ncnc3ccccc23)cc1`, the activity change is reported as inconclusive: -46.4% [inhibitor].
In the case of `Cc1cc(C)c(OCC(O)CN2CCN(C(=O)c3ccccc3)CC2)c(C)c1` (stereo unspecified), the activity change is reported as inconclusive: -35.7% [inhibitor].
In the case of `COC(=O)Cc1ccc2sc(-c3ccccc3)nc2c1`, the activity change is reported as inconclusive: -37.6% [inhibitor].
With `O=[N+]([O-])c1ccc(SCc2ccncc2)nc1` the activity change was inconclusive: -32.1% [inhibitor].
For `COc1ccc(OC)c(Nc2nc(N(C)c3ccccc3)nc(N)c2[N+](=O)[O-])c1`, the activity change was inconclusive: -39.4% [inhibitor].
In the case of `CN(C)S(=O)(=O)N1CCN(C(=O)c2cccc(Br)c2)CC1`, the activity change is reported as inactive: -4.16%.
With `NS(=O)(=O)c1cccc(NC(=O)COC(=O)/C(=C/c2cccs2)c2cccs2)c1` the activity change was inactive: -3.69%.
With `COc1ccccc1CNC(=O)[C@H](C)NC(=O)C1CCN(C(=O)[C@H](CCSC)NC(=O)OC(C)(C)C)CC1` the activity change was inconclusive: -30.9% [inhibitor].
In the case of `C=CC[C@@H](CC(=O)N(CCO)Cc1ccccc1)C(=O)NC[C@H](OC(=O)[C@@H](CC=C)CC(=O)OC(C)(C)C)c1ccccc1`, the activity change is reported as inactive: -16.2%.
In the case of `COC(=O)c1sc2nc(-c3ccco3)ccc2c1N`, the activity change is reported as inconclusive: -56.1% [inhibitor].
In the case of `c1ccc(-c2nc3ccccc3nc2-c2ccccn2)nc1`, the activity change is reported as inactive: -4.57%.
With `O=C(Nc1ncc([N+](=O)[O-])s1)c1ccccc1Br` the activity change was active: -92.6%.
For `Cc1ccc(NC(=O)c2nc[nH]c2C(=O)NCCCCCNC(=O)OC(C)(C)C)cc1`, the activity change was inactive: -20.8%.
In the case of `O=C(O)CC(NC(=O)c1ccccc1NC(=O)c1ccccc1)C(=O)O` (stereo unspecified), the activity change is reported as inconclusive: -31.7% [inhibitor].
In the case of `NS(=O)(=O)c1ccc(N2N=C(c3ccccc3)CC2c2cccc(Br)c2)cc1` (stereo unspecified), the activity change is reported as inconclusive: -35.6% [inhibitor].
In the case of `CCn1nnnc1SCC(=O)Nc1cc(OC)cc(OC)c1`, the activity change is reported as inconclusive: -37% [inhibitor].
For `Cc1ccc(-c2cn(CCC(=O)O)c(-c3ccc(Cl)nc3)n2)cc1`, the activity change was inconclusive: -30.4% [inhibitor].
For `CCN(CC)CCC(c1ccc(N(C)C)cc1)c1c(O)cc(OC)cc1OC` (stereo unspecified), the activity change was inconclusive: -36.3% [inhibitor].
With `CCOC(=O)N1CCN(c2c(NCc3ccc(Cl)cc3)c(=O)c2=O)CC1` the activity change was inactive: 4.33%.
For `Cc1nnc(SCC(=O)NCC2CCCO2)n1-c1ccccc1` (stereo unspecified), the activity change was inactive: 7.82%.
In the case of `CCOc1ccc(NC(=O)c2nn(C)cc2Br)cc1`, the activity change is reported as inconclusive: -34% [inhibitor].
For `NC(=S)NNC(=O)[C@@H]1CCCC[C@@H]1C(=O)O`, the activity change was inactive: -0.358%.
For `CC1=NN(c2ccc(C)cc2)C(=O)/C1=C/c1ccc(-c2cc([N+](=O)[O-])ccc2O)o1`, the activity change was inconclusive: -39.3% [inhibitor].
In the case of `O=C(NCc1ccco1)c1ccc([N+](=O)[O-])o1`, the activity change is reported as active: -80.5%.
For `Cc1cccc(/C=N\NC(=O)c2csnn2)c1`, the activity change was inactive: -7.32%.
In the case of `Cc1cccc(CCNS(=O)(=O)c2ccc3c(c2)CCN3C(=O)CCC(=O)O)c1`, the activity change is reported as inactive: 8.08%.
In the case of `O=C(/C=C/c1ccc2ccccc2n1)c1cc(Br)ccc1O`, the activity change is reported as inactive: 29%.
With `CCC1=C(c2cc(OC)c(OC)c(OC)c2)C2(CCCC2)C(=O)O1` the activity change was inconclusive: -33.5% [inhibitor].
In the case of `COc1ccccc1C(=O)Nc1nnc(S(=O)(=O)N2CCCCCC2)s1`, the activity change is reported as inconclusive: -30.2% [inhibitor].
In the case of `O=C(Nc1ccon1)C12CC3CC(C1)CC(n1cnc([N+](=O)[O-])n1)(C3)C2`, the activity change is reported as inconclusive: -33.1% [inhibitor].
In the case of `CCC(COC)Oc1cc(NCc2ccccc2)c2ncn(C(C)C)c2c1` (stereo unspecified), the activity change is reported as inconclusive: -39.3% [inhibitor].
In the case of `Cc1ccccc1-c1cc(=O)c2ccccc2o1`, the activity change is reported as inconclusive: -38.8% [inhibitor].
For `CCOC(=O)c1sc(NC(=O)c2ccc3nc[nH]c3c2)nc1C`, the activity change was inconclusive: -32.2% [inhibitor].
In the case of `CC(C)CN1C(=O)C(=O)N(CC(=O)c2ccc3c(c2)OCO3)C1=O`, the activity change is reported as inactive: 8.62%.
For `COc1ccc(NC(=O)CSCC(=O)Nc2ccc(S(=O)(=O)N3CCCCC3)cc2)cc1`, the activity change was inconclusive: -38.7% [inhibitor].
In the case of `Cc1ccc2c(c1)C1OCCC1C1N2C(=O)C2C(C(=O)O)C3C=CC21O3` (stereo unspecified), the activity change is reported as inconclusive: -33.8% [inhibitor].
With `Cc1cc(N2CCN(C)CC2)nc2ccc(NC(=S)N3CCN(c4ccc(Cl)cc4)CC3)cc12` the activity change was inconclusive: -74.1% [inhibitor].
With `Cc1ccc(OCC(=O)Nc2cccc(-c3nnc(-c4ccccc4)o3)c2)cc1` the activity change was inactive: 2.72%.
With `Oc1ccccc1/C=N/n1c(COc2ccccc2)n[nH]c1=S` the activity change was inactive: -8.84%.
For `Cc1ccc(S(=O)(=O)NC(=O)c2cc(C)n(CC(c3ccccc3)N(C)C)c2C)cc1` (stereo unspecified), the activity change was inconclusive: -31.1% [inhibitor].
For `O=C(O)/C(=C\c1ccc2ccccc2c1)c1cccc2ccccc12`, the activity change was inactive: 8.49%.
For `CCN1CCN(c2cc(C)c3cc(NC(=S)N4CC(C)CC(C)C4)ccc3n2)CC1` (stereo unspecified), the activity change was inactive: -3.19%.
In the case of `O=C(Nc1nc2cc3c(cc2s1)OCCO3)c1cccc(N2C(=O)CCC2=O)c1`, the activity change is reported as inconclusive: -44.4% [inhibitor].
With `Cc1cc(C(=O)COC(=O)COc2ccc(C#N)cc2)c(C)n1C1CC1` the activity change was inactive: -11%.
With `CCC1CCCCN1C(=O)CCNC(=O)Cn1cnc2ccccc2c1=O` (stereo unspecified) the activity change was inconclusive: -31.8% [inhibitor].
% is scaled to controls: 0 for no effect and ±100 for the full control effect.
